Assay results taken from the supplement of paper PMC4996465.
Viability of KB3-1 and Nalm-6 cells after 48 h of drug alone (CellTiter-Glo), 11 doses over about 4.5 log units. % of DMSO wells, lower = more cell loss; AC50 from the fitted curve, lower = more potent. No active / inactive call. Nalm-6 was screened in two runs. AC50 is listed only for well-fitted inhibitory curves. KB3-1 is a HeLa-derived carcinoma line, Nalm-6 a B-cell precursor leukaemia line.

Tests used:
KB3-1 [1] = experiment: viability (% of DMSO control); higher = more viable cells
Experimental: (§1)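 Eleven-dose screen of the NCATS MIPE 3 library on cells without co-treatment; CellTiter-Glo after 48 h, as % of DMSO wells.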

Nalm-6 [2] = experiment: as above
Experimental: as §1

KB3-1 [3] = experiment: log AC50 of viability decrease (48 h) (log10 M); higher = less potent
Experimental: (§2)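 Eleven-dose screen of the NCATS MIPE 3 library on cells without co-treatment; CellTiter-Glo after 48 h. AC50 from the curve fit; only inhibitory curves of the better fit classes are listed.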

Nalm-6 [4] = experiment: as above
Experimental: as §2

C[C@@H](Oc1cc(-c2cnn(C3CCNCC3)c2)cnc1N)c1c(Cl)ccc(F)c1Cl [Crizotinib]
viability (KB3-1 [1]; 0.00078 µM): 105%
viability (KB3-1 [1]; 0.00234 µM): 104%
viability (KB3-1 [1]; 0.00702 µM): 104%
viability (KB3-1 [1]; 0.0211 µM): 106%
viability (KB3-1 [1]; 0.0632 µM): 103%
viability (KB3-1 [1]; 0.19 µM): 102%
viability (KB3-1 [1]; 0.569 µM): 103%
viability (KB3-1 [1]; 1.71 µM): 95.7%
viability (KB3-1 [1]; 5.12 µM): 79.2%
viability (KB3-1 [1]; 15.4 µM): 74.1%
viability (KB3-1 [1]; 46.1 µM): 29.8%
viability (Nalm-6 [2]; run: 1, 0.00078 µM): 122%
viability (Nalm-6 [2]; run: 1, 0.00234 µM): 118%
viability (Nalm-6 [2]; run: 1, 0.00702 µM): 125%
viability (Nalm-6 [2]; run: 1, 0.0211 µM): 116%
viability (Nalm-6 [2]; run: 1, 0.0632 µM): 116%
viability (Nalm-6 [2]; run: 1, 0.19 µM): 105%
viability (Nalm-6 [2]; run: 1, 0.569 µM): 108%
viability (Nalm-6 [2]; run: 1, 1.71 µM): 80%
viability (Nalm-6 [2]; run: 1, 5.12 µM): 46.2%
viability (Nalm-6 [2]; run: 1, 15.4 µM): 33.1%
viability (Nalm-6 [2]; run: 1, 46.1 µM): -0.765%
viability (Nalm-6 [2]; run: 2, 0.00078 µM): 109%
viability (Nalm-6 [2]; run: 2, 0.00234 µM): 111%
viability (Nalm-6 [2]; run: 2, 0.00702 µM): 106%
viability (Nalm-6 [2]; run: 2, 0.0211 µM): 107%
viability (Nalm-6 [2]; run: 2, 0.0632 µM): 110%
viability (Nalm-6 [2]; run: 2, 0.19 µM): 106%
viability (Nalm-6 [2]; run: 2, 0.569 µM): 108%
viability (Nalm-6 [2]; run: 2, 1.71 µM): 89.1%
viability (Nalm-6 [2]; run: 2, 5.12 µM): 64.5%
viability (Nalm-6 [2]; run: 2, 15.4 µM): 66.2%
viability (Nalm-6 [2]; run: 2, 46.1 µM): -0.749%
log AC50 of viability decrease (KB3-1 [3]): -4.73
log AC50 of viability decrease (Nalm-6 [4]; run: 1): -5.28
log AC50 of viability decrease (Nalm-6 [4]; run: 2): -4.78

C[C@@H]1CN[C@H]2[C@@H](C)[C@@]\3(CC[C@H]\4[C@@H]5C/C=C6/C[C@@H](O)CC[C@]6(C)[C@H]5CC4=C3C)O[C@@H]2C1 [Cyclopamine]
viability (KB3-1 [1]; 0.00078 µM): 100%
viability (KB3-1 [1]; 0.00234 µM): 97.7%
viability (KB3-1 [1]; 0.00702 µM): 93.2%
viability (KB3-1 [1]; 0.0211 µM): 103%
viability (KB3-1 [1]; 0.0632 µM): 102%
viability (KB3-1 [1]; 0.19 µM): 97.6%
viability (KB3-1 [1]; 0.569 µM): 101%
viability (KB3-1 [1]; 1.71 µM): 95.3%
viability (KB3-1 [1]; 5.12 µM): 88.2%
viability (KB3-1 [1]; 15.4 µM): 87.5%
viability (KB3-1 [1]; 46.1 µM): 62.9%
viability (Nalm-6 [2]; run: 1, 0.00078 µM): 92.2%
viability (Nalm-6 [2]; run: 1, 0.00234 µM): 97.6%
viability (Nalm-6 [2]; run: 1, 0.00702 µM): 98.4%
viability (Nalm-6 [2]; run: 1, 0.0211 µM): 102%
viability (Nalm-6 [2]; run: 1, 0.0632 µM): 103%
viability (Nalm-6 [2]; run: 1, 0.19 µM): 114%
viability (Nalm-6 [2]; run: 1, 0.569 µM): 95.1%
viability (Nalm-6 [2]; run: 1, 1.71 µM): 96.8%
viability (Nalm-6 [2]; run: 1, 5.12 µM): 82.2%
viability (Nalm-6 [2]; run: 1, 15.4 µM): 85.1%
viability (Nalm-6 [2]; run: 1, 46.1 µM): 0.848%
viability (Nalm-6 [2]; run: 2, 0.00078 µM): 102%
viability (Nalm-6 [2]; run: 2, 0.00234 µM): 104%
viability (Nalm-6 [2]; run: 2, 0.00702 µM): 99.8%
viability (Nalm-6 [2]; run: 2, 0.0211 µM): 110%
viability (Nalm-6 [2]; run: 2, 0.0632 µM): 104%
viability (Nalm-6 [2]; run: 2, 0.19 µM): 105%
viability (Nalm-6 [2]; run: 2, 0.569 µM): 101%
viability (Nalm-6 [2]; run: 2, 1.71 µM): 93%
viability (Nalm-6 [2]; run: 2, 5.12 µM): 84.9%
viability (Nalm-6 [2]; run: 2, 15.4 µM): 85.4%
viability (Nalm-6 [2]; run: 2, 46.1 µM): 0.414%
log AC50 of viability decrease (KB3-1 [3]): -4.68
log AC50 of viability decrease (Nalm-6 [4]; run: 1): -4.58
log AC50 of viability decrease (Nalm-6 [4]; run: 2): -4.63

CCCCCCCCCCCCCC(=O)N[C@H](CO)[C@H](O)c1ccc([N+](=O)[O-])cc1 [D-NMAPPD]
viability (KB3-1 [1]; 0.00078 µM): 101%
viability (KB3-1 [1]; 0.00234 µM): 98.9%
viability (KB3-1 [1]; 0.00702 µM): 100%
viability (KB3-1 [1]; 0.0211 µM): 102%
viability (KB3-1 [1]; 0.0632 µM): 100%
viability (KB3-1 [1]; 0.19 µM): 103%
viability (KB3-1 [1]; 0.569 µM): 102%
viability (KB3-1 [1]; 1.71 µM): 95.6%
viability (KB3-1 [1]; 5.12 µM): 96.4%
viability (KB3-1 [1]; 15.4 µM): 85.1%
viability (KB3-1 [1]; 46.1 µM): 3.29%
viability (Nalm-6 [2]; run: 1, 0.00078 µM): 105%
viability (Nalm-6 [2]; run: 1, 0.00234 µM): 106%
viability (Nalm-6 [2]; run: 1, 0.00702 µM): 118%
viability (Nalm-6 [2]; run: 1, 0.0211 µM): 117%
viability (Nalm-6 [2]; run: 1, 0.0632 µM): 116%
viability (Nalm-6 [2]; run: 1, 0.19 µM): 121%
viability (Nalm-6 [2]; run: 1, 0.569 µM): 120%
viability (Nalm-6 [2]; run: 1, 1.71 µM): 112%
viability (Nalm-6 [2]; run: 1, 5.12 µM): 102%
viability (Nalm-6 [2]; run: 1, 15.4 µM): 56.4%
viability (Nalm-6 [2]; run: 1, 46.1 µM): 3.55%
viability (Nalm-6 [2]; run: 2, 0.00078 µM): 112%
viability (Nalm-6 [2]; run: 2, 0.00234 µM): 100%
viability (Nalm-6 [2]; run: 2, 0.00702 µM): 106%
viability (Nalm-6 [2]; run: 2, 0.0211 µM): 107%
viability (Nalm-6 [2]; run: 2, 0.0632 µM): 109%
viability (Nalm-6 [2]; run: 2, 0.19 µM): 112%
viability (Nalm-6 [2]; run: 2, 0.569 µM): 103%
viability (Nalm-6 [2]; run: 2, 1.71 µM): 108%
viability (Nalm-6 [2]; run: 2, 5.12 µM): 106%
viability (Nalm-6 [2]; run: 2, 15.4 µM): 57.7%
viability (Nalm-6 [2]; run: 2, 46.1 µM): 4.72%
log AC50 of viability decrease (KB3-1 [3]): -4.63
log AC50 of viability decrease (Nalm-6 [4]; run: 1): -4.83
log AC50 of viability decrease (Nalm-6 [4]; run: 2): -4.78
